Results taken from paper PMC7819943, “Rice protein-binding microarrays: a tool to detect cis-acting elements near promoter regions in rice”.
The list shows a part of the results.

Each sequence was assayed against T1, OsWOX13 (Oryza sativa, UniProt Q5QMM3 1-267) (assay: protein-binding microarray (RPBM); PBS, 2% BSA, 51.3 ng/ul salmon testes DNA, 50 uM zinc acetate, 200 nM TF, 25 C, 1 h; high values mean tight binding). Settings: protein: recombinant; tags: N-terminal polyhistidine and DsRed monomer fusion (pET32a); label: CyDye5-dUTP incorporated in the synthesized complementary strand; 3' TTTTT single-stranded linker to array surface; dsDNA, one strand shown.
T1 sequence: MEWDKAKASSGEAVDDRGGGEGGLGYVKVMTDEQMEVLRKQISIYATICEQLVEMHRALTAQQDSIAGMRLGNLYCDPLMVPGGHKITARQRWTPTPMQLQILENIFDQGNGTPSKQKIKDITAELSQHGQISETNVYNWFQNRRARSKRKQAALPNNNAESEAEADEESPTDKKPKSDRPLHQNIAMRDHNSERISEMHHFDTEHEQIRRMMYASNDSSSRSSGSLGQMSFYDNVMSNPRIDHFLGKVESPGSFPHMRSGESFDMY
In short: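 A custom Agilent array was converted to double-stranded form by primer extension with Cy5-dUTP and blocked with 2% BSA. Protein at 200 nM in PBS with 2% BSA, salmon testes DNA and 50 µM zinc acetate was applied for 1 h at 25 °C, followed by washing. The proteins were polyhistidine–DsRed N-terminal fusions of transcription factors, expressed in E. coli BL21-CodonPlus and Ni–NTA-purified. The binding signal is per-feature fluorescence intensity (arbitrary units) from an Axon 4000B scanner.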

Question: Which binding signal does the source give for “ATGAGCTGTAATTAGGAGTCCGATCGTCTCAAGTTAGCGTCGGAGTCACCTAGTGCAG” here?
Answer: 6940 fluorescence intensity (a.u.)

Question: Which binding signal does the source give for “CAATTAATTTGCACTTTAGCTTTATGCAAGCAGTTGCTAGCGGAGTCACCTAGTGCAG” here?
Answer: 33500 fluorescence intensity (a.u.)

Question: Which binding signal does the source give for “TAGATAAATTACCCTAAAATCCTGTAAAACTTCTGCATTTCGGAGTCACCTAGTGCAG” here?
Answer: 3350 fluorescence intensity (a.u.)

Question: “TTGTAAAATTTAAAATTATGTTGTCGTTTTAATATATTTGCGGAGTCACCTAGTGCAG” was tested. Which binding signal did it give?
Answer: 4270 fluorescence intensity (a.u.)

Question: “TAGTGATTTGAAAATACGGGTGCAAACAATGGAGCAACAACGGAGTCACCTAGTGCAG” was tested. Which binding signal did it give?
Answer: 3560 fluorescence intensity (a.u.)

Question: How did the binding signal turn out when “AAGTAATTAATACATGGGACCTAATTTATTGGAAGAGAATCGGAGTCACCTAGTGCAG” was run?
Answer: 14300 fluorescence intensity (a.u.)

Question: For “CGACTATAATTAATCTATAATTAAACTCTAATTATTTTAACGGAGTCACCTAGTGCAG”, which binding signal is on record?
Answer: 20500 fluorescence intensity (a.u.)

Question: “ACGATTGATGAAACATATATATCTAAGTTTTAATATATACCGGAGTCACCTAGTGCAG” was tested. Which binding signal did it give?
Answer: 8270 fluorescence intensity (a.u.)

Question: How did the binding signal turn out when “AACTGATTAGCGTCGGGAGCATAGCACATTGGTCGAGTGACGGAGTCACCTAGTGCAG” was run?
Answer: 20200 fluorescence intensity (a.u.)

Question: For “CAGATTGGAGGAAAACGATTCCCCTCTTTTCCTACCTTCCCGGAGTCACCTAGTGCAG”, which binding signal is on record?
Answer: 14900 fluorescence intensity (a.u.)

Question: “CATATATCCACTAATTAATTAATAAACGTTGACCAGTATGCGGAGTCACCTAGTGCAG” was tested. Which binding signal did it give?
Answer: 20200 fluorescence intensity (a.u.)

Question: Which binding signal does the source give for “AGTAAATATGTTTCTAATTAATCGGATTTCAAATATAGCTCGGAGTCACCTAGTGCAG” here?
Answer: 5230 fluorescence intensity (a.u.)

Question: How did the binding signal turn out when “AACAGAGGGACTAATTACCATTTACCAGGTCATGATTTTGCGGAGTCACCTAGTGCAG” was run?
Answer: 10700 fluorescence intensity (a.u.)

Question: With “ATGTTATAATGCGTCAATTGATGGCAACTGTTTCCATTGTCGGAGTCACCTAGTGCAG” as the sequence, how does the binding signal read?
Answer: 6940 fluorescence intensity (a.u.)

Question: “GGGTTTGAATTGATGGAGTGATTTTAAATAATCGCTGGGCCGGAGTCACCTAGTGCAG” was tested. Which binding signal did it give?
Answer: 32100 fluorescence intensity (a.u.)

Question: “AGAGATCAATTACCAAGAAACTGAGAGGAAACACACAGATCGGAGTCACCTAGTGCAG” was tested. Which binding signal did it give?
Answer: 5620 fluorescence intensity (a.u.)

Question: With “ATTAATCATGTTTTATCATCTAACAACAATGAAAATACGACGGAGTCACCTAGTGCAG” as the sequence, how does the binding signal read?
Answer: 3510 fluorescence intensity (a.u.)

Question: For “TATAACCAAGAGCCCAACATGACATATCTAATTAGAATACCGGAGTCACCTAGTGCAG”, which binding signal is on record?
Answer: 18200 fluorescence intensity (a.u.)

Question: How did the binding signal turn out when “GGTTTTATTTTCTTTTCTTCGTCGTCTCCCACACTCTCCGCGGAGTCACCTAGTGCAG” was run?
Answer: 3670 fluorescence intensity (a.u.)

Question: For “TGGAATTGATTATGATGCTGTTTCCTTCATGGGAGCTCTACGGAGTCACCTAGTGCAG”, which binding signal is on record?
Answer: 31900 fluorescence intensity (a.u.)

Question: With “ATATAAACATACAATTAATAGTTTATTAAAAGAGTGTGTCCGGAGTCACCTAGTGCAG” as the sequence, how does the binding signal read?
Answer: 20600 fluorescence intensity (a.u.)

Question: Which binding signal does the source give for “TGTTTATAACTGTAATGACATATAAGCACCACATAGGGGCCGGAGTCACCTAGTGCAG” here?
Answer: 5560 fluorescence intensity (a.u.)

Question: For “ATAATACTGATTAATCTTATGCATTTCGATTAATCTGTAACGGAGTCACCTAGTGCAG”, which binding signal is on record?
Answer: 13500 fluorescence intensity (a.u.)

Question: “GTGCCTTCAAATTAAATTCCCATCCAATCACCTCTCTTTTCGGAGTCACCTAGTGCAG” was tested. Which binding signal did it give?
Answer: 8930 fluorescence intensity (a.u.)

Question: How did the binding signal turn out when “CTTAATTTTCTACTAACTAAAACCATATACTAAATTAAGCCGGAGTCACCTAGTGCAG” was run?
Answer: 32200 fluorescence intensity (a.u.)

Question: How did the binding signal turn out when “TAGTGACTAATTGAAATTTAGTAGTATATGATATGATGTGCGGAGTCACCTAGTGCAG” was run?
Answer: 30500 fluorescence intensity (a.u.)

Question: “TGTAATTTATCCCGTTGTTACGGTATCCCGTTCTCTATTTCGGAGTCACCTAGTGCAG” was tested. Which binding signal did it give?
Answer: 5860 fluorescence intensity (a.u.)

Question: For “TTAAATTGGTATTGATAGTTGAGGGAGTCGTTATATCCGACGGAGTCACCTAGTGCAG”, which binding signal is on record?
Answer: 41700 fluorescence intensity (a.u.)

Question: How did the binding signal turn out when “CGGGACAAATTAATATTCTGTTGTTGCTTCGCTTGGCTTTCGGAGTCACCTAGTGCAG” was run?
Answer: 6790 fluorescence intensity (a.u.)

Question: How did the binding signal turn out when “CTAATTTCAAAATTTAAAGATACATTCTCCAATCCAAGGACGGAGTCACCTAGTGCAG” was run?
Answer: 3420 fluorescence intensity (a.u.)

Question: Which binding signal does the source give for “TAAAATTACGAGTTGTCAGTGCTGTGCCTATATGTGCACGCGGAGTCACCTAGTGCAG” here?
Answer: 4730 fluorescence intensity (a.u.)

Question: For “TGGGATTGGGAAATAAATGAAGGGTTAGGATTAAATGGAACGGAGTCACCTAGTGCAG”, which binding signal is on record?
Answer: 24100 fluorescence intensity (a.u.)

Question: For “TGGTAGCAATCAATTTTGCCTGTCTAGTGACTGGAATTTCCGGAGTCACCTAGTGCAG”, which binding signal is on record?
Answer: 19000 fluorescence intensity (a.u.)

Question: With “ATAAATAAATTTCAGCAAATTAAGGTCGAGAGATCACCTCCGGAGTCACCTAGTGCAG” as the sequence, how does the binding signal read?
Answer: 11300 fluorescence intensity (a.u.)

Question: How did the binding signal turn out when “TCAACCAATCACAAACATTCTCTTTCATCTACTTTATCTTCGGAGTCACCTAGTGCAG” was run?
Answer: 12200 fluorescence intensity (a.u.)

Question: For “GAGATTGTGATCAAAATTTCAAAATTCAGACCATCGAAATCGGAGTCACCTAGTGCAG”, which binding signal is on record?
Answer: 3210 fluorescence intensity (a.u.)

Question: How did the binding signal turn out when “TATCCTAACAGTTACTCTTCAATTATATGTTAATTATATACGGAGTCACCTAGTGCAG” was run?
Answer: 8400 fluorescence intensity (a.u.)

Question: With “TAAACTAACGGAATGAATTAAACAGTTGGTATTGGGTAACCGGAGTCACCTAGTGCAG” as the sequence, how does the binding signal read?
Answer: 3280 fluorescence intensity (a.u.)

Question: How did the binding signal turn out when “TAGGATGTTAATTACTCTAATGAAATGAAATAGTTCGAGTCGGAGTCACCTAGTGCAG” was run?
Answer: 15200 fluorescence intensity (a.u.)

Question: With “ACTGTGATTTGGAAATCCCATGAATTGAATAGGCCTGAAGCGGAGTCACCTAGTGCAG” as the sequence, how does the binding signal read?
Answer: 22500 fluorescence intensity (a.u.)

Question: Which binding signal does the source give for “TGATAATAGATAGATGGTTAATATATATGTGTGGGTCCACCGGAGTCACCTAGTGCAG” here?
Answer: 20000 fluorescence intensity (a.u.)

Question: For “TCTCAAATTGATCATCATATAATCACATGGACACGAATTTCGGAGTCACCTAGTGCAG”, which binding signal is on record?
Answer: 19100 fluorescence intensity (a.u.)
